The supplement of paper PMC10126150
Sequences with one replicate were seen in a single cluster, so their values are uncertain.

Test system: ATP
Assay: switch fluorescence ratio, 500 uM ATP over buffer (Cy3 cluster intensity, sum of 5 cycles each) (fold (ratio)); higher = stronger signal-on switching upon ATP binding; sequences stand for … in TCGTCGGCAGCGTCAGATGTGTATAAGAGACAGTTTTTTTTTTTTTTTTTTTTTTTTT…TC
Conditions: aptamer strand: ATP DNA aptamer (quencher-CACCTGGGGGAGTATTGCGGAGGAAGG + anchor), 100 nM annealed; ATP concentration: 500 uM; one replicate
Method in brief: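 Per cluster, summed Cy3 intensity from the target cycles was divided by that from the buffer cycles to give the fluorescence ratio, then averaged per switch-domain sequence. Clusters outside 100-1000 RFU were excluded. The Cy3-labelled switching-strand clusters, on a modified Illumina MiSeq flow-cell, were annealed to 100 nM quencher-labelled ATP aptamer and imaged in selection buffer, then after 15 min with 500 uM ATP at 22 °C, for five cycles with NaOH stripping and re-annealing between them.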
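Note: ATP exposure 15 min at 22 °C before imaging.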

Sequence	switch fluorescence ratio
ATCGGCTGTA	1.01
TAGAACGCA	1.12
CAATTCTATC	0.929
CCCCGAACTC	2.81
TTGTTCATCA	1.03
GGCGCTCCGG	0.999
AAATGTCATA	1.01
ATATTATACA	1.02
TCGTTACTTT	1.04
TATTCTCACA	1.01
AACATAACCT	2.34
CGGGTTAGGC	0.983
AATCTTGGCA	1.05
TGTATGCCT	1.04
CAAGGTTCTC	1.01
TTTATGTGCC	0.986
GGCGTATGTA	1
ATTTGGACCG	1.03
CACGATATAC	2.29
CTTGGAGTCT	0.994
TATTGTGGG	0.987
CCGCCGAATA	4.92
GCCAATTATC	1.03
GCCGAATAGG	1.02
GAGAGACGTT	1.02
TGGTGTAGG	1.03

Sequence	switch fluorescence ratio
CTTGCGTATG	1
CTGCAAGGTA	1.08
ATAGGGGTTG	1.01
GTTTTAAATA	1.02
GGAGTGCAGT	0.994
TAAGAGAAAA	1.04
GTGTACGTCG	0.922
AATTTACCTA	1.08
ATTGCGACAG	0.99
GATCGCCATA	1.05
TTGGGCTTAG	0.984
ACGCCCATAT	1.28
GTTTCACGCA	1.11
ACTATTTATT	1.02
CAGAGTCCAT	0.986
ACAGCTTTTG	1
AAATTGCGTG	1.01
GGTTCTTGGG	0.995
CGTTATCTG	0.947
GGAGGAAGC	1.02
GGGACGGGAG	0.973
ATGATGCCGT	1.06
ATTATGTCCT	1.02
TAAACTTTTT	1.04
TTTACTGACT	1.05
TAGATGACTG	0.903

Sequence	switch fluorescence ratio
CTTTTCGGCC	1.01
CCGTGTCCGC	2.71
ATCGCAAGAT	1.19
CGCCCAGGTA	2.9
AATGGGGAGA	1.05
ATCCGTTGG	0.994
TCGCCTTGCT	1.04
TGCGGCCTCT	1.04
CGCCGGCATC	1.61
GGGGGTTTCA	1.05
CCGGAGGCTA	3.19
TTGTAGCGA	1.69
AGGGCTTTTC	0.965
GGTTTGACA	1.01
ACACCCGAGC	1.07
ATAGATTGGT	0.982
CCTGATGCTT	1.03
AGGGCATGGT	0.959
GTGATCTCTC	1.03
CTCTGACTGC	1.48
GGGGCTGCTC	0.976
ACCTGATAGC	1.03
TTGGACCAGG	0.952
AGTATCTGCT	0.989
TCCTTTTCG	1.08
CGGAGCCGGA	1.07

Sequence	switch fluorescence ratio
GAGGGCTTAT	0.888
CTGATATTAG	0.998
GGATGGGCAT	0.989
CATACTATAT	1.09
GATGGGAGA	0.967
CCGTCCACTA	1.39
ACAGGTCTG	0.982
ATGCAGGAAT	0.981
TTTGACTCCC	1.03
ATTCGCTACT	1.58
ATAAACCAGG	1.39
AGGGTGGGAG	0.999
TTACTGGTTT	0.998
CGAGGTCATG	0.998
AAGAAATCAA	1
TATTACATT	0.985
AATCCTGAAA	1.03
ATCGATCACC	1.07
ACAATTTCGC	1.07
GGGTTCATAG	0.957
TAAGTCACAC	1.04
GTGGTCTTAG	0.966
ATTGTAATGC	1.28
GGTTTCCGCT	1.09
TGGTTTTGTA	1.05
GGACGTCGG	0.965

Sequence	switch fluorescence ratio
TACCGGCTTA	1.05
TGGCATACCG	1.01
ATGCACGTGT	1.02
CACACGCCTA	1.11
CTGAAGGTTC	1.1
TCGATTAATC	1.02
TATTATTACA	1.07
TAATTTCCAA	0.999
CACTGGCAGC	1.06
ACGGACTCCA	1.33
TGGCGTCAAA	1.03
TAGTTAAAAT	1.02
GATATTGGCT	1.01
GAGATTGGCG	1.02
CTTTGAGGGT	1
TGCAGTAGGA	1.07
CCATCAGCCT	1.1
AGCGTCCTCG	1.02
TTTTCTGGAT	1.03
GAAGAAATTG	1.01
ACAATAATAC	2.48
CGCACGTAG	1.05
TGCGGTATCG	1.03
TACGCATCCT	1.35
AAAGACTTGC	1.07
CCGAGGGTGG	1.03

Sequence	switch fluorescence ratio
AAATACGGGG	1.04
ATTTCTCCTG	1.02
CTGAGACCTG	1.01
TCGTGTTGAC	0.995
ATTCGAAAAT	1.12
TTCAGCAAAC	4.01
ACGACAGCGA	2.63
TTTGCTGGCA	0.964
CATGATGAAG	0.972
GGGCGACCGT	0.999
CAGTAATATG	1.05
TGCATACATC	1.07
CCTTGCAGTA	4.91
TCGTTATCGT	0.999
TTCGCCAAAG	1.02
TTTCATTATA	1.03
AGCTATAGA	1.04
GCGGCTCAGC	1.02
GAGAAGTCAT	0.989
CGCCCAAGTT	1.09
GTTCCCCTGG	1.2
GGAGAGTGT	0.969
TTGGGACCGC	0.96
TCATAAGTTC	1.01
TCAGAACTGT	0.977
CAGATCCAGG	1.14

Sequence	switch fluorescence ratio
TCGCGGCATA	0.987
ATGATGAAAC	1.02
CGCCTCCTCT	1.2
CGTATTATAG	0.997
ATTTTACTTG	0.962
CTTTCTGTTT	1.04
CCTGCATACA	2.3
CGCTCATCGC	1.06
GGCATTTACT	1.09
GAAGCCCCAG	1.02
CAGCGATTAT	1.09
AAATCATCAG	0.999
CACTTGCTGA	0.956
CAGGGAATGC	1.48
CATTCATCTA	1.01
TATGAGTGC	1.03
CATAGAGTGG	0.962
GTGGGCAGGA	0.977
ATGTTATGT	1.01
CCGTGGGCTG	1.03
GTCGAATGGA	0.982
TCGAGTGTGG	1.03
TCGACGACA	1.18
CTCATCATCG	0.982
TTCGGAGACC	1.02
ACAATCCC	1.18

Sequence	switch fluorescence ratio
TAAAACCGGC	1.11
GCTGCGCATG	1.5
TGGCACAGA	1
TGCTTGCAGC	0.964
GGCTCGTTCC	1.02
ATCCCGTTTT	1.02
CCTAATGATA	0.967
GCTGTATATG	0.972
AAATCCCCTT	0.972
AATAGATCCT	1.02
GAACACTTCA	1.14
GTTCTAACCT	1.82
TTGGTGATGC	1.23
TTCTATAGAC	1.03
GCTATTCGGC	0.943
CAGCGGTTCC	1.05
AGTTGAATG	0.999
AATACGGCT	0.991
CGGCCGAGCT	1.02
